The full ranking holds about 33,000 sequences; the median of “E-score (-0.5 to 0.5)” is about -0.012, and the highest 2% start at about 0.29. The list shows a part of the results.
The sequences below were run against T1, Ybr033w (UniProt P38073) (assay: PBM E-score (8-mer binding enrichment) (E-score (-0.5 to 0.5)); higher = stronger / more preferred TF binding; most listed sequences are background and not binding sites). Conditions: protein concentration: 200 nM; construct: GST-full length.
T1 sequence: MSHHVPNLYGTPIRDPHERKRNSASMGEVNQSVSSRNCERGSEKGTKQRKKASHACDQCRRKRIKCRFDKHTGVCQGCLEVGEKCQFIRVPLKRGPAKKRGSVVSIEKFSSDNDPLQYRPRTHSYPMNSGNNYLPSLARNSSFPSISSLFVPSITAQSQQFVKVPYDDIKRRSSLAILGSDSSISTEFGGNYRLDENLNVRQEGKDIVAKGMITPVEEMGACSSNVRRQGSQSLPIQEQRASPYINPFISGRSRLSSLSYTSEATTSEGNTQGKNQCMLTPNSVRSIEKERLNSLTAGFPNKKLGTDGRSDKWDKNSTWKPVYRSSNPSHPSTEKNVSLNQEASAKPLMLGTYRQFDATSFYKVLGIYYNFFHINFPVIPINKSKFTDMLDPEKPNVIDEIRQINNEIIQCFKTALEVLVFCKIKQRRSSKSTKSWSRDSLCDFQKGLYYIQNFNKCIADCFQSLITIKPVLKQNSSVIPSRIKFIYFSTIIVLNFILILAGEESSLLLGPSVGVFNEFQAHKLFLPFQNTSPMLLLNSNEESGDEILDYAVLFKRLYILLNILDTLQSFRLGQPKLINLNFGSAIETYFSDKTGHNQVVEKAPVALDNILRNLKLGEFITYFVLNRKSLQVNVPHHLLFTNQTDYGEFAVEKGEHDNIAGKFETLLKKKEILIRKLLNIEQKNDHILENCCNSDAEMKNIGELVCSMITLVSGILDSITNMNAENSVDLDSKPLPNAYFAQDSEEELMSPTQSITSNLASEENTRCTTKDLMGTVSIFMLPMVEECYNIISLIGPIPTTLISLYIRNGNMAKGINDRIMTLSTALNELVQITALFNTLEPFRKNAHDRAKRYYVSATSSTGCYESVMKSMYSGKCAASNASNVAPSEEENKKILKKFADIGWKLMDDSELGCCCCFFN
Method in brief: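 GST-tagged yeast TFs (full-length or DNA-binding domain) were made by PURExpress in vitro transcription/translation and applied at about 100-200 nM to universal all-10-mer Agilent arrays. The arrays were made double-stranded by primer extension, on fresh or once-stripped slides. Bound protein was detected with fluorescent anti-GST, and scans were normalised with masliner. Each ungapped eight-base word, pooled with its reverse complement, received an E-score (modified Wilcoxon-Mann-Whitney statistic) from the Universal PBM Analysis Suite.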

In order of rising “PBM E-score” value:
1. CGACCCCC  -0.333
2. CCCCAGGA  -0.311
3. ACCGGTGG  -0.303
4. GGCTTCAC  -0.279
5. CAAGGCGG  -0.278
6. GGACTCAC  -0.242
7. AGGCCTGA  -0.238
8. GCCGATGA  -0.225
9. CCGTCGAC  -0.218
10. GAGACACC  -0.216
11. CCACAGAC  -0.215
12. AACGGCCT  -0.213
13. CCGTCAGA  -0.207
14. GAGGTCAC  -0.196
15. AACGCTTG  -0.194
16. CTCGTGGC  -0.173
17. CAGCAACC  -0.165
18. GTGGTAGA  -0.158
19. CCGGTGTA  -0.148
20. AGTGGCTG  -0.145
21. CGAGGACA  -0.143
22. CACGACCC  -0.135
23. AACGCCGG  -0.132
24. ACACGCCT  -0.129
25. CCGCCGGC  -0.123
26. ATGCCCAA  -0.111
27. CCCCGATA  -0.105
28. AATGACCG  -0.0995
29. GTCCCCAA  -0.0974
30. AAACCCTC  -0.0901
31. AGCTGCTG  -0.0869
32. GCTGATAC  -0.0861
33. ACGTTGAC  -0.0727
34. AGTCTATC  -0.0692
35. AATGGCAC  -0.0634
36. GAGGAGTA  -0.0624
37. ATGAACCG  -0.0614
38. GGAAAGGA  -0.0611
39. ACGCGATC  -0.0515
40. ACGAAAGC  -0.05
41. CTCGCGCA  -0.0366
42. ACCTTAAG  -0.033
43. ATCTGGTG  -0.0329
44. GCGTAGAA  -0.0322
45. GCAACGTA  -0.0309
46. AGAAGCTA  -0.0254
47. ACCTGATC  -0.0169
48. ACAGAACC  0.00465
49. AACCTAGT  0.0151
50. CTTCTCGA  0.0158
51. AAGTGTGT  0.0227
52. ACAGTAGT  0.0255
53. CTTTCCCC  0.0309
54. GACCTAAC  0.0362
55. AGCACTAT  0.0398
56. AATAACGC  0.0422
57. CGTCTATA  0.0435
58. GCAGGTAA  0.0549
59. CGATCCAA  0.0578
60. GGTGAACC  0.0582
61. CTAAACGA  0.0611
62. AGTTAGAA  0.0705
63. ACTGTGTG  0.073
64. AGTCTGAT  0.0945
65. ATCGAATG  0.0968
66. AATGCGCG  0.105
67. AATCGTCG  0.111
68. ACAACATC  0.117
69. CTATGTAA  0.125
70. TGTATAAA  0.136
71. CCCCGAAA  0.141
72. CACACTTA  0.143
73. CCCTTAAG  0.149
74. ATCCGATC  0.159
75. CATATAGA  0.162
76. ATGTTGTA  0.164
77. ATCTGCTA  0.164
78. CCTAAGTA  0.197
79. ATACCCAA  0.197
80. TAATCACA  0.207
81. ACTGAAAC  0.208
82. ATTTTTAC  0.213
83. TACTATAA  0.237
84. ACACAAAA  0.266
85. TATCAAGA  0.269
86. TATATTGA  0.275
